Measured values as given in the supplement of paper PMC4967469.
By IC50 is meant the dose at which the fit gives 50% viability; a limit (>, <) means that the fit lies beyond the doses tested. AUC, from the same fit, is the share of area under the viability curve across the 256-fold dose range; it is 1 without any effect and falls as sensitivity rises. Where the top dose is marked as inferred, it comes from the curve model; the source does not state it.

Compound: N.N.[Cl][Pt][Cl] [Cisplatin]
Assay: Viability of human cancer cell lines after 72 h of drug (GDSC screen)
Details: top dose inferred
Protocol: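 Human cancer cell lines in 384-well plates, medium with 10% serum, drug for 72 h over a 256-fold dose range (nine 2-fold or five 4-fold steps up to the top dose). Adherent lines were fixed and stained with the nucleic acid dye Syto60, suspension lines read with resazurin; signal relative to control wells, capped at 0 and 100%. One two-parameter sigmoid per drug and line, fitted in a mixed model over all curves with the slope shared within a line.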

Row | Cell Line | AUC | IC50
1 | PEO1 (ovary, adherent, top dose 10 µM) | 0.865 | 9.41 µM
2 | PF-382 (T-cell lymphoblastic leukaemia, suspension, top dose 10 µM) | 0.967 | > 10 µM
3 | PFSK-1 (medulloblastoma, adherent, top dose 10 µM) | 0.813 | 5.8 µM
4 | PL4 (pancreas, adherent, top dose 10 µM) | 0.973 | > 10 µM
5 | PL-21 (acute myeloid leukaemia, suspension, top dose 10 µM) | 0.983 | > 10 µM
6 | PSN1 (pancreas, adherent, top dose 10 µM) | 0.676 | 1.77 µM
7 | PWR-1E (prostate, adherent, top dose 10 µM) | 0.834 | 6.46 µM
8 | QGP-1 (pancreas, adherent, top dose 10 µM) | 0.978 | > 10 µM
9 | QIMR-WIL (acute myeloid leukaemia, suspension, top dose 10 µM) | 0.859 | 7.92 µM
10 | RC-K8 (B-cell lymphoma, suspension, top dose 10 µM) | 0.976 | > 10 µM
11 | RCC10RGB (kidney, adherent, top dose 10 µM) | 0.972 | > 10 µM
12 | RCC-AB (kidney, adherent, top dose 10 µM) | 0.951 | > 10 µM
13 | RCC-ER (kidney, adherent, top dose 10 µM) | 0.854 | 9.38 µM
14 | RCC-FG2 (kidney, adherent, top dose 10 µM) | 0.749 | 4.03 µM
15 | RCC-JF (kidney, adherent, top dose 10 µM) | 0.53 | 0.761 µM
16 | RCC-JW (kidney, adherent, top dose 10 µM) | 0.506 | 0.65 µM
17 | RCC-MF (kidney, adherent, top dose 10 µM) | 0.428 | 0.376 µM
18 | RCH-ACV (B-cell leukaemia, suspension, top dose 10 µM) | 0.754 | 2.84 µM
19 | RCM-1 (large intestine, adherent, top dose 10 µM) | 0.949 | > 10 µM
20 | REH (B-cell leukaemia, suspension, top dose 10 µM) | 0.87 | 8.71 µM

Row | Cell Line | AUC | IC50
21 | RERF-LC-KJ (lung adenocarcinoma, adherent, top dose 10 µM) | 0.903 | > 10 µM
22 | RERF-LC-MS (lung adenocarcinoma, adherent, top dose 10 µM) | 0.93 | > 10 µM
23 | RERF-LC-Sq1 (lung squamous cell carcinoma, adherent, top dose 10 µM) | 0.946 | > 10 µM
24 | RF-48 (stomach, adherent, top dose 10 µM) | 0.952 | > 10 µM
25 | RH-1 (rhabdomyosarcoma, adherent, top dose 10 µM) | 0.902 | 9.22 µM
26 | RH-18 (rhabdomyosarcoma, adherent, top dose 10 µM) | 0.973 | > 10 µM
27 | RH-41 (rhabdomyosarcoma, adherent, top dose 10 µM) | 0.929 | > 10 µM
28 | RKN (ovary, adherent, top dose 10 µM) | 0.896 | > 10 µM
29 | RKO (large intestine, adherent, top dose 10 µM) | 0.943 | > 10 µM
30 | RL95-2 (endometrium, adherent, top dose 10 µM) | 0.911 | > 10 µM
31 | RL (B-cell lymphoma, suspension, top dose 10 µM) | 0.99 | > 10 µM
32 | RMG-I (ovary, adherent, top dose 10 µM) | 0.983 | > 10 µM
33 | RO82-W-1 (thyroid, adherent, top dose 10 µM) | 0.915 | > 10 µM
34 | ROS-50 (B-cell leukaemia, suspension, top dose 6 µM) | 0.948 | > 6 µM
35 | RPMI-2650 (head and neck, adherent, top dose 10 µM) | 0.947 | > 10 µM
36 | RPMI-6666 (Hodgkin lymphoma, suspension, top dose 10 µM) | 0.827 | 7.82 µM
37 | RPMI-7951 (melanoma, adherent, top dose 10 µM) | 0.797 | 4.55 µM
38 | RPMI-8226 (myeloma, suspension, top dose 10 µM) | 0.932 | > 10 µM
39 | RPMI-8402 (T-cell lymphoblastic leukaemia, suspension, top dose 10 µM) | 0.877 | 7.32 µM
40 | RPMI-8866 (chronic myeloid leukaemia, suspension, top dose 10 µM) | 0.834 | 5.85 µM

Row | Cell Line | AUC | IC50
41 | RT4 (bladder, adherent, top dose 10 µM) | 0.902 | > 10 µM
42 | RVH-421 (melanoma, adherent, top dose 10 µM) | 0.931 | > 10 µM
43 | RXF393 (kidney, adherent, top dose 10 µM) | 0.797 | 6.98 µM
44 | Raji (Burkitt lymphoma, suspension, top dose 10 µM) | 0.951 | > 10 µM
45 | Ramos-2G6-4C10 (Burkitt lymphoma, suspension, top dose 10 µM) | 0.948 | > 10 µM
46 | SAS (head and neck, adherent, top dose 10 µM) | 0.807 | 5.84 µM
47 | SAT (head and neck, adherent, top dose 10 µM) | 0.817 | > 10 µM
48 | SBC-1 (small cell lung carcinoma, suspension, top dose 10 µM) | 0.986 | > 10 µM
49 | SBC-3 (small cell lung carcinoma, adherent, top dose 10 µM) | 0.77 | 3.48 µM
50 | SBC-5 (small cell lung carcinoma, adherent, top dose 10 µM) | 0.965 | > 10 µM
51 | SCC90 (head and neck, adherent, top dose 10 µM) | 0.873 | > 10 µM
52 | SCC-4 (head and neck, adherent, top dose 10 µM) | 0.902 | > 10 µM
53 | SCC-9 (head and neck, adherent, top dose 10 µM) | 0.919 | > 10 µM
54 | SCC-25 (head and neck, adherent, top dose 10 µM) | 0.949 | > 10 µM
55 | SCH (stomach, adherent, top dose 10 µM) | 0.879 | > 10 µM
56 | SF126 (glioma, adherent, top dose 10 µM) | 0.855 | 8.71 µM
57 | SF268 (glioma, adherent, top dose 10 µM) | 0.657 | 1.76 µM
58 | SF295 (glioma, adherent, top dose 10 µM) | 0.873 | > 10 µM
59 | SF539 (glioma, adherent, top dose 10 µM) | 0.79 | 3.98 µM
60 | SH-4 (melanoma, adherent, top dose 10 µM) | 0.938 | > 10 µM
